Screen size: about 310,000 compounds; about 14,000 (4.5%) showed an effect of 50% or more. The effect is printed as a negative number. The list shows a part of the results.
These molecules were tested against human ether-à-go-go-related gene (hERG) potassium channel (human, UniProt Q12809) (assay: primary screen, population patch clamp on CHO cells stably expressing hERG).
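Further: peak tail current of the secondary pulse compared with the same well before compound.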

Sequence of human ether-à-go-go-related gene (hERG) potassium channel (Q12809 whole entry, looked up): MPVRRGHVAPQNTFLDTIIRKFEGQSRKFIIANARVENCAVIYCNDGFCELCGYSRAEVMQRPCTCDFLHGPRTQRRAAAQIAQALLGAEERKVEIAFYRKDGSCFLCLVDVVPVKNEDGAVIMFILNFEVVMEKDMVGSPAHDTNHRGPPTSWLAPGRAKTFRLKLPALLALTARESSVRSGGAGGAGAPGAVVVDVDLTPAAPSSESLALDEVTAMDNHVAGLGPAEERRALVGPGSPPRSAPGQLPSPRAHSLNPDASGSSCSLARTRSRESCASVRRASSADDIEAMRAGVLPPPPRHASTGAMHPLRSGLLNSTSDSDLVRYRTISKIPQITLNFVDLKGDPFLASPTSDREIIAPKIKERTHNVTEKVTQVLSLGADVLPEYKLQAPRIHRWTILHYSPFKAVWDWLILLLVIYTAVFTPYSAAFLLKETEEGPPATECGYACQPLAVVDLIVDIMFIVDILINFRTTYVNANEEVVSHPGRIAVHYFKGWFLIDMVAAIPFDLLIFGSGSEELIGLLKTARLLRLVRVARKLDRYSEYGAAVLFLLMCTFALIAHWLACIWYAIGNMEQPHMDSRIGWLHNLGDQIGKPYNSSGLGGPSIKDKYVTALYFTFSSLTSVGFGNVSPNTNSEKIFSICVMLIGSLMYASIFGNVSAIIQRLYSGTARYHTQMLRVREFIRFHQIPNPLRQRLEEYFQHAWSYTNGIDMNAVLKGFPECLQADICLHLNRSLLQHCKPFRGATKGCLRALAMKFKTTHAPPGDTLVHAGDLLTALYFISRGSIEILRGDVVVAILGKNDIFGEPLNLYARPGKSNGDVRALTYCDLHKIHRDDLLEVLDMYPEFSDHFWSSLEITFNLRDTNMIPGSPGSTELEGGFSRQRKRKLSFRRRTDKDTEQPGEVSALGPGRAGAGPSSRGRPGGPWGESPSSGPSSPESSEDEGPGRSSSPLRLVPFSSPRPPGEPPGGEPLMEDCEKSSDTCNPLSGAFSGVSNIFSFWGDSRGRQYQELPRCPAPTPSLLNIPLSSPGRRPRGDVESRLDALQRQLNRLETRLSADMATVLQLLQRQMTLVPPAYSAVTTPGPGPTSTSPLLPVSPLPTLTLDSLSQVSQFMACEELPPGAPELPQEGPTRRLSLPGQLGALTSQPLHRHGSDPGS

Compound | hERG current change (%, negative = inhibition) at 10uM [%]
COc1cccc(CCNC(=O)c2ccc(OC)c(OC3CCN(C(C)C)CC3)c2)c1 | -57.4
COc1cc(/C=C2\SC(=Nc3ccc(O)cc3)NC2=O)cc(OC)c1OC | 11.3
COC(=O)CSc1nnc(-c2cccc(NC(=O)c3ccc(C)cc3)c2)n1C | -34.9
O=C(C(=O)N1CC=C(c2ccccc2)CC1)c1c[nH]c2ccccc12 | 3.04
COc1cccc(/C=C(\C)C(=O)c2c(C)cc(C)[nH]c2=O)c1OC | 11.2
COC(=O)C1=C(c2cccc(OCc3ccccc3)c2)C[C@@H]2CC[C@H]1N2C(=O)NCc1ccc2[nH]ccc2c1 | 16.1
N#CC1(Cc2ccccc2)c2ccccc2C=CN1C(=O)c1ccccc1 (centres unmarked) | 15.3
COc1ccccc1C(=O)Nc1ccc2c(c1)nc(CN1CCCCC1)n2C | -21.8
CCc1ccc(N(CC(=O)O)S(=O)(=O)c2c(C)noc2C)cc1 | 15.8
NS(=O)(=O)c1ccc(NC(=O)c2cccc(N3C(=O)c4ccccc4C3=O)c2)cc1 | 13.3
COc1ccccc1C1NC(=O)c2ccccc2O1 (centres unmarked) | -7.19
Cc1ccc(NC(=O)CCC(=O)N/N=C/c2ccc(O)cc2O)cc1 | 15.3
CCOC(=O)c1nnc2cc(C)nn2c1C | 16.5
O=c1oc2c(CN3CCOCC3)c(O)ccc2c2ccccc12 | -20
Cc1ccc(NC(=O)Cn2c(O)c(N=NS(=O)(=O)c3ccc(C)cc3)c3ccccc32)cc1 | 0.453
CCCCNC(=O)CSc1nc2ccsc2c(=O)n1C1CCN(C(=O)OCC)CC1 | -22.2
CCO.C[C@H]1c2cccc(O)c2C(O)=C2C(=O)[C@]3(O)C(O)=C(C(N)=O)C(=O)[C@@H](N(C)C)C3[C@@H](O)C21.Cl.O (some centres unmarked) | 16.1
Cc1cccc(N(Cc2ccccc2)C(=O)CSC(C)C(=O)Nc2cc(C)on2)c1 (centres unmarked) | -53
CCNC(=S)NNC(=O)C1CCCCC1 | 6.17
O=C(c1ccc(CNS(=O)(=O)c2ccc(Br)cc2)cc1)N1CCC2(CC1)OCCO2 | -20.4
Cc1ccc(NC(=O)c2nc[nH]c2C(=O)N[C@@H](C)c2ccccc2)cc1 | 17.5
CCOc1ccc2[nH]c3nc(SCC(=O)OC(C)C)nnc3c2c1 | 13.8

Compound | hERG current change (%, negative = inhibition) at 10uM [%]
C/C(=N\N(c1ccccc1)c1ccccc1)c1ccc(N)cc1 | 7.43
COc1ccccc1N1CCN(c2ccc3cc(S(=O)(=O)N4CCCCC4)ccc3n2)CC1 | 5.2
CC(Sc1nc2ccccc2s1)C(=O)N(C)Cc1ccccc1 (centres unmarked) | 12.5
O=C(CSc1nncn1-c1ccccn1)Nc1cccc(Cl)c1 | -10.8
O=C(CN1C(=O)CSc2ccccc21)NCCC1=CCCCC1 | 0.901
COc1cc(CSC)nc(-c2ccccc2)n1 | 4.9
CC(C)(C)c1cc(Cl)c(O)c(NC(=S)NC(=O)c2cccnc2)c1 | 5.51
COc1ccc(NC(=O)CCN2C(=O)c3ccncc3C2=O)cc1OC | -7.46
CC1CCN(C(=O)Cn2cc(SCC(=O)NCC3CCCO3)c3ccccc32)CC1 (centres unmarked) | -16.2
COC(=O)C1CCN(C(=O)COC(=O)[C@@H]2CC(O)CN2S(=O)(=O)c2ccc3c(c2)OCCO3)CC1 (some centres unmarked) | 6.94
O=C1c2ccccc2C(=O)c2[nH]c(=O)[nH]c21 | 3.81
Cc1cccc(N2CCN(C(=O)CN(C)S(=O)(=O)c3ccc4c(c3)CCC(=O)N4)CC2)c1C | -60.5
CCOC(=O)Oc1ccc2c(=O)c(Oc3cc(C)cc(C)c3)coc2c1 | -15.9
CCOC(=O)c1c(NC(=S)Nc2ccc(OC)cc2)sc2c1CCCCC2 | 12.5
Cc1cc(C)cc(NC(=O)CN2CCN(CCN=CC3=C(O)CC(c4ccc(Cl)cc4)CC3=O)CC2)c1 (centres unmarked) | -31.9
CCCCCCCCc1c(O)nc(-n2[nH]c(C)c(CCO)c2=O)[nH]c1=O | 5.29
CC(C)CNC(=O)COC(=O)c1ccc(Cl)c(S(N)(=O)=O)c1 | 9.14
Cn1cc(Br)c(C(=O)NC(=S)Nc2ccc(S(N)(=O)=O)cc2)n1 | 10.4
CCOC(=O)C1CCN(c2cc3c(cc2NC(=O)c2cc(OC)ccc2Br)n(C)c(=O)n3C)CC1 | 0.12
Cc1cc(C)c(-c2cc(C(F)(F)F)no2)c(=O)[nH]1 | 9.13
Cc1ccc(C(=O)NC(=S)NNS(=O)(=O)c2ccccc2)cc1 | 10.9
Cc1ccccc1NC(=S)N(Cc1cccnc1)Cc1ccccc1Cl | -11.6

Compound | hERG current change (%, negative = inhibition) at 10uM [%]
CCOC(=O)C1CCN(C(=O)Cn2cc3c(n2)CCC(C)C3)CC1 (centres unmarked) | -5
c1cnc(Oc2ccc3oc4ccccc4c3c2)nc1 | -3.14
CCC/C=C1/CCCOC(C(=O)NCc2ccccc2)(C(F)(F)F)C1 (centres unmarked) | 1.16
Cc1nn(CC(=O)O)c2ccccc12 | 17.7
CCC(C)NS(=O)(=O)c1ccc(NC(=O)C2CCN(C(=O)c3ccco3)CC2)cc1 (centres unmarked) | -3.86
Cc1ccc(OCCC(=O)NCCc2ccc(S(N)(=O)=O)cc2)cc1 | -10.1
CC(=NCc1ccc(F)cc1)c1c(O)n(C)c(=O)n(C)c1=O | -27.5
COc1ccc(CNC(=S)Nc2ccccc2)cc1 | 7.34
COc1ccc(-c2nnc(SCc3ccc(C(=O)O)cc3)n2N)cc1 | 6.5
O=C(COC(=O)c1ccc(Cl)nc1)Nc1ccc2c(c1)OCO2 | -20.7
Cl.O=C(CN1CCN(C2CCCCC2)CC1)Nc1ccc(Br)cc1 | -70
CC1=C(C(=O)Nc2ccc(C)cc2C)C(c2cccs2)NC(=S)N1 (centres unmarked) | -5.3
CCN(CC(=O)Nc1ccc(OC)cc1)C(=O)c1ccc(=O)n(Cc2ccccc2)n1 | -31
CCNC(=O)/C(=C\C=C\c1ccccc1)NC(=O)c1ccc(Br)o1 | -18.2
O=C1[C@@H]2[C@H]3CC[C@H](C3)[C@@H]2C(=O)N1O | 27.8
O=C(O)c1ccc(N/N=C/c2ccc3ncccc3c2)cc1 | 11.3
Fc1ccc(Nc2nc(-c3ccncc3)cs2)cc1 | 26.1
COCCNC(=S)N1CCN(c2nc(-c3ccc(Cl)cc3)cs2)CC1 | 2.09
CCC(C)NCCCOc1cc(Cl)ccc1Cl.O=C(O)C(=O)O (centres unmarked) | -42.3
COc1ccccc1C(=O)Nc1ccc(Nc2ccccc2)cc1 | 18.4
Cc1cc(N2CCOCC2)ccc1/C=C1\C(=O)NC(=O)N(c2ccccc2)C1=O | 10.8
[N-]=[N+]=NCc1cn2cccnc2n1 | 26

Compound | hERG current change (%, negative = inhibition) at 10uM [%]
Cc1ccc(NC(=O)NC(=O)CN2C(=O)NC3(CCc4ccccc43)C2=O)c(C)c1 (centres unmarked) | -26.1
COc1cc2cc(CN(Cc3cccs3)C(=S)Nc3ccccc3)c(=O)[nH]c2cc1OC | -6.81
CN(C)c1ccc(-c2cc([C@H]3[C@@H]4C=CCC[C@@]4(C)C(=O)N3Cc3ccccc3)ccc2F)cc1 | 11.6
COc1cc2c(cc1OC)CN(Cc1cc(OC)c3c(c1)OCO3)CC2 | 6.31
COc1ccccc1NC(=O)CC1S/C(=N/N=C(\C)C2CCCCC2)NC1=O (centres unmarked) | 2.38
COC(=O)CCCC(=O)N(C)CC1CCCN(CCc2ccccc2C)C1 (centres unmarked) | -53.6
CCOC(=O)C1=C(CC)Nc2ccccc2N/C1=N\S(=O)(=O)c1ccccc1F | -3.06
C=CCNC(=O)c1c(N)n(CCN2CCOCC2)c2nc3ccccc3nc12 | -20
CC(C)(C)c1ccc(C(=O)N2CCN(c3ccc(N4CCOCC4)nn3)CC2)cc1 | -49.3
CC1CCN(C(=O)C2CCN(S(=O)(=O)N3CCC4(CC3)OCCO4)CC2)CC1 | 27.4
CCOc1ccc(-c2ccc(SCC(=O)Nc3nnc(CC)s3)nn2)cc1 | 46.4
Cc1ccc(S(=O)(=O)Oc2ccc(/C=C3\N=C(c4cccc(C)c4)OC3=O)cc2)cc1 | 1.5
O=C(NCc1ccccc1)c1ccc2ccccc2n1 | 0.0129
Cc1ccc(NC(=O)CSc2nnc(Cc3csc(C)n3)o2)cc1 | -9.27
Cc1cc(C)cc(-n2c(C)cc(/C=N/NC(=O)CSc3ncccn3)c2C)c1 | 1.67
O=C(CSc1ccncc1)Nc1ccc(S(=O)(=O)Nc2nccs2)cc1 | 10.2
COc1ccc(F)cc1S(=O)(=O)N1CCC(C(N)=O)CC1 | 3.21
COCCCNC(=S)N1CCN(S(=O)(=O)c2ccc(OC)cc2)CC1 | 2.49
S=c1[nH]nc(-c2cc(-c3ccccc3)n[nH]2)n1/N=C/c1ccc(Cl)cc1 | 17.7
COc1ccccc1N1CCN(C(=O)c2cc3cc(Br)ccc3oc2=O)CC1 | -16.9
